# Test results from PubChem BioAssay AID504375 (National Center for Advancing Translational Sciences (NCATS), 2011).
# Among all 1,600 compounds or so, about 25 (2%) were called active. Inconclusive means that the source gave no clear call. Such entries were picked first, then a sample of the others. The call rests on the fitted dose curve; in most records, active means well fitted inhibition curve with a large enough effect; inconclusive means small, poorly fitted or top-dose-only effect, or effect the other way; inactive means no such curve, though single readings can be large or run the other way. A potency beside an inconclusive call is a rough fit, not a confirmed value.
# Molecular target: Runt-related transcription factor 1 (Homo sapiens) + Core-binding factor subunit beta (Homo sapiens) (UniProt Q01196+Q13951)
# UniProt Q01196, sequence (Q01196 whole entry, looked up): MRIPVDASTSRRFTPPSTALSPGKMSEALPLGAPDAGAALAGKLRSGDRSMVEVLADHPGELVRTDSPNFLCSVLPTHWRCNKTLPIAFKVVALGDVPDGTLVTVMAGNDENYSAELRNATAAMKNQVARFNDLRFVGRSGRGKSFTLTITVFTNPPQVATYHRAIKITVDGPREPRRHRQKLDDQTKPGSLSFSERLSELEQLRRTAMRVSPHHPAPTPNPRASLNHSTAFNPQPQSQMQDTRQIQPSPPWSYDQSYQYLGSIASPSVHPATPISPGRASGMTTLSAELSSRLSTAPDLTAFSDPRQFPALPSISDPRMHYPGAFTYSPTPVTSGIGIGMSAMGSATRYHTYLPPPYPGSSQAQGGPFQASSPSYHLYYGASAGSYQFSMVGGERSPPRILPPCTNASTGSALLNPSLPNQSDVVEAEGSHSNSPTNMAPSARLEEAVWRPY
# UniProt Q01196, sequence (Q13951 whole entry, looked up): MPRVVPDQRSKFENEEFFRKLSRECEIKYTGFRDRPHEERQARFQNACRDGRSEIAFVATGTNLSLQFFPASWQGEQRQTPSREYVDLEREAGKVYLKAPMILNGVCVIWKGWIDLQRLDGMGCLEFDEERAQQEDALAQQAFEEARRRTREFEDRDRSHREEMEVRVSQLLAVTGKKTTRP
# Experiment: qHTS Assay for Compounds Blocking the Interaction Between CBF-beta and RUNX1 for the Treatment of Acute Myeloid Leukemia: Hit Validation with Orthogonal Assay
# Details: CBFbeta-RUNX1 binding orthogonal assay, biochemical; series mostly up to 41 µM; activity change, negative = inhibition: at the top concentration
# Excerpt: NIH Chemical Genomics Center [NCGC]
# NIH Molecular Libraries Probe Production centers Network [MLPCN]
# Assay Submitter (PI): Paul Liu
# Core Binding Factor (CBF) abnormalities are associated with 20-25% of all acute myeloid leukemias (AML), of which 5-10% are further sub classified as acute myelomonocytic leukemia with eosinophilia, also known as M4Eo in the FAB classification scheme. This subtype of leukemia is usually associated with chromosome 16 inversion (p13:q22). Chromosome 16 inversion results in formation of the fusion oncogene CBFB-MYH11, which encodes the fusion protein CBF-beta-SMMHC.
# It has been hypothesized that the interference of CBF-beta and RUNX1 binding could have therapeutic implications for patients with CBF mediated leukemias. We developed a CBF-beta and RUNX1 binding assay in AlphaScreenTM format and optimized it for high throughput screening to search for inhibitors. The goal of this project is to screen MLPCN's compound collection (MLSMR) for identifying the inhibitors of the interaction between CBF-beta and RUNX1 proteins as research probes. If these probes work well in the animal models, the ultimate goal of this project is to development a new drug treatment for this disease.
# This assay can not be used to assess how apparent inhibitors interfere with protein binding, and whether inhibitors specifically bind to either protein. Disruption of this protein-protein interaction, through any mechanism, is the intended target activity.
# The present data set was run to confirm the activity of hits from the primary screen using an orthogonal assay technology for measuring protein-protein interaction disruption.
# A TR-FRET (time resolved fluorescence resonance energy transfer) assay was performed using the same assay buffer, protein concentrations and incubation times as described previously in the AlphaScreen assay, except that terbium (Tb+) labeled anti-his-antibody and XL665 linked streptavidin were used to capture the binding signal. The Tb+ labeled anti-his-antibody captures His(6)-CBF and XL665 linked streptavidin binds to biotin-RUNX1. The binding of RUNX1 to CBFbrings Tb+ and XL665 to proximity resulting in a TR-FRET signal. Briefly, in a white 384-well plate, 10 µl/well of mixture of biotin-RUNX1 and His(6)-CBFwere incubated with 10 µl/well buffer (positive control) or 10 µl/well compounds (negative control) for 20 min followed by an addition of 10 µl/well of Tb+ labeled anti-his(6)-antibody and XL665 linked streptavidin. After 90 min of incubation in the dark, the assay plate was measured in the Envision plate reader using TR-FRET detection mode. For the 1536-well plate format, 3 µl/well mixture of biotin-RUNX1 and His(6)-CBF (30 nM per protein) was incubated with 23 nl/well compound (dissolved in 100% DMSO) or the equivalent DMSO concentration (positive control) for 30 min followed by the addition of 1 µl/well of 0.44 ng Tb+ labeled anti-his(6)-antibody and 5 nM streptavodin-XL665. After 90 min of incubation, the assay plate was measured in the Envision plate reader.
# The TR-FRET assay for detecting interaction between HIV-I Tat and […] was similarly performed with the recombinant full-length HIV-I Tat CLADE B and HIV-I Tat Biotin conjugated proteins supplied by Diatheva (Fano, Italy). Briefly, the His-CBF and Biotin-RUNX1 complex at a working concentration of 83.3 nM per protein were pre-incubated in assay buffer for 10 minutes on ice. Then HIV-I Tat or unlabeled CBF were added to reach final concentrations (Supplementary Figure 4b) and incubated for 5 minutes. Finally anti-His antibody and streptavidin-XL665 at a final concentration of 2.2 ng and 5 nM, respectively, were added to the plate, which was incubated for 1 hr prior to reading on the PerkinElmer Envision plate reader.
# Keywords: MLSMR, MLPCN, NIH Roadmap, qHTS, NCGC, Core binding factor, CBF, CBF-beta, Acute myeloid leukemia
# On the % scale 0 is the no-effect control and ±100 the full control effect; potency means the concentration at half of the fitted maximal effect; tags describe the fitted curve by direction and shape.
SMILES,"activity change, negative = inhibition",Potency
Oc1ccccc1/C=N/Nc1nn[nH]n1,inactive: 6.96%,
O=C1c2ccccc2C(=O)c2c(Nc3ccc(CCO)cc3)ccc(O)c21,,"inconclusive: 12.6 µM [activator, full curve]"
CC1=NN(c2ccccc2)C(=O)/C1=C/C=C/c1ccc(N(C)C)cc1,,"inconclusive: 11.2 µM [activator, full curve]"
Cc1ccc(C)c(NC(=S)N(CCN(C)C)C(C)c2ccccn2)c1 (stereo not given),,"inconclusive: 0.0154 µM [inhibitor, full curve, poor fit]"
CC(=O)Nc1cccc(OCCCNC(=O)c2cccc3ccccc23)c1,inactive: 6.23%,
NCC(=O)Nc1ccc(Cl)cc1C(=O)c1ccc[nH]1,,"inconclusive: 5.01 µM [inhibitor, full curve]"
O=C(O)C1=CC(=C(c2ccc(O)c(C(=O)O)c2)c2ccc(O)c(C(=O)O)c2)C=CC1=O,,active: 7.94 µM
CCOC(=O)/C(C#N)=C/c1ccc(OC(=O)c2ccccn2)cc1,,"inconclusive: 0.126 µM [activator, full curve]"
O=C(O[C@@H]1OC2COC(=O)c3cc(O)c(O)c(O)c3-c3c(cc(O)c(O)c3O)C(=O)O[C@@H]([C@H]1O)[C@@H]2O)c1cc(O)c(O)c(O)c1,,active: 0.891 µM
Nc1c(C(=O)NCC2CCCO2)sc2nc3c(c(-c4ccco4)c12)CC/C3=C\c1ccco1 (stereo not given),,"inconclusive: 4.47 µM [inhibitor, full curve]"
CC(C)(C)C(=O)Nc1ccc(NC(=O)C(C)(C)C)cc1,,"inconclusive: 7.08 µM [inhibitor, single point]"
Oc1ccccc1/C=N/Nc1ncc(Br)cn1,,"inconclusive: 31.6 µM [inhibitor, partial curve, poor fit]"
COC(=O)c1ccccc1N=Nc1c(C)noc1C,inactive: 12.7%,
NCCc1ccc(O)c(O)c1,inactive: -0.396% [at 82.4 µM],
CC(=O)COc1nc2c(c(-c3ccco3)c1C#N)CCc1ccccc1-2,inactive: 8.75%,
O=C(NC(=S)NNC(=O)c1ccccc1O)c1ccco1,,active: 3.16 µM
Cc1cc(=O)cc2oc3cc(N)c(-c4c(C)cc(O)cc4O)c(C)c3nc1-2,,"inconclusive: 8.91 µM [inhibitor, full curve, poor fit]"
Cn1ncc(Br)c1NC(=O)Nc1ccc(OC(F)(F)F)cc1,,"inconclusive: 141 µM [inhibitor, partial curve, poor fit]"
CN(C)c1cccc(N(C)C)c1CNC(=O)C(C)(C)C,inactive: 1.48%,
N#C/C(=C/c1ccco1)C(N)=S,,"inconclusive: 5.01 µM [inhibitor, partial curve, poor fit]"
CO/N=C1\CN(c2nc3c(cc2F)c(=O)c(C(=O)O)cn3C2CC2)CC1CN (stereo not given),,"inconclusive: 44.7 µM [inhibitor, partial curve, poor fit]"
COc1cc(C(=S)NCc2ccccc2)cc(Br)c1O,,"inconclusive: 7.11 µM [inhibitor, full curve]"
c1ccc2oc(-c3ccn[nH]3)cc2c1,inactive: 13%,
CC(C)(c1cc(Br)c(O)c(Br)c1)c1cc(Br)c(O)c(Br)c1,,"inconclusive: 0.0206 µM [inhibitor, full curve, poor fit]"
Fc1ccc(C(CCNCc2cccs2)c2ccco2)cc1 (stereo not given),inactive: 10.9%,

SMILES,"activity change, negative = inhibition",Potency
CSCC[C@H](NC(=O)OC(C)(C)C)C(=O)N/N=C/c1cccc2nccnc12,inactive: 33.1%,
Nc1nc(-c2ccccc2)c(N=Nc2ccc(Cl)cc2)s1,,"inconclusive: 1.09 µM [inhibitor, full curve]"
CC(Cc1c[nH]c2ccccc12)C(=O)O (stereo not given),,inconclusive: 0.0003 µM [inhibitor]
CC1CCC2(CC1)NC(=S)N(C(C)(C)C)N2 (stereo not given),inactive: -0.587%,
c1ccc(-c2n[nH]c(-c3ccccn3)n2)nc1,,"inconclusive: 50.1 µM [inhibitor, partial curve, poor fit]"
O=C(CCC(=O)N1CCN(c2ccc(O)cc2)CC1)c1cccs1,,"inconclusive: 50.1 µM [inhibitor, single point]"
NS(=O)(=O)c1ccc(Sc2ccccn2)c([N+](=O)[O-])c1,inactive: 54.9%,
CN=c1scc(-c2ccccc2F)n1/N=C/c1ccc(O)c(O)c1O,,"inconclusive: 0.0015 µM [inhibitor, full curve, poor fit]"
Nc1nc(NCc2ccco2)nc(NCCO)c1[N+](=O)[O-],inactive: 6.69%,
COc1ccc2c(c1)-c1nc(N)sc1CC2,,"inconclusive: 0.122 µM [inhibitor, full curve, poor fit]"
NS(=O)(=O)c1ccc(N/N=C/c2ccc(O)c(O)c2O)c([N+](=O)[O-])c1,,"inconclusive: 10 µM [inhibitor, single point]"
COc1ccc(OC)c(-c2c3cc(O)c(=O)cc-3oc3cc(O)c(O)cc23)c1,,"inconclusive: 22.4 µM [activator, partial curve]"
Nc1ccc2nc3c(=O)[nH]c(=S)[nH]c3nc2c1,,"inconclusive: 12.6 µM [activator, full curve, poor fit]"
Cc1nn(C)c(=O)c(N)c1-c1cc(-c2ccc(Cl)c(Cl)c2)n[nH]1,inactive: 9.21%,
CC(C)(C)c1ccc(C(=O)Nc2ccc(S(N)(=O)=O)cc2)cc1,inactive: -14.1%,
CCCC(=O)NC(c1cccs1)c1cc([N+](=O)[O-])c2cccnc2c1O (stereo not given),,"inconclusive: 14.1 µM [activator, full curve, poor fit]"
Nc1nc(-c2ccc3c(c2)NC(=O)CO3)cs1,,"inconclusive: 20 µM [inhibitor, partial curve]"
Cc1nc(-c2ccc(S(=O)(=O)N3CCCN(CCc4ccccc4)CC3)s2)cs1,,"inconclusive: 28.2 µM [inhibitor, partial curve, poor fit]"
c1cnc2c(c1)ccc1cccnc12,,"inconclusive: 44.7 µM [inhibitor, partial curve]"
CCCCc1c(C)nc(N2CCCC2)[nH]c1=O,inactive: 0.526%,
O=C(O)CSCC(=O)N1CCCN(c2nc3ccc(Cl)cc3s2)CC1,inactive: -5.09%,
CCNC(=S)Nc1ccc(NC(=O)c2ccccc2O)cc1,inactive: 16.3%,
O=C(Nc1ccc2ccccc2c1)c1ccc(Cl)cc1Cl,inactive: -9.19%,
CCOc1ccc(/C(C)=N/NC(=O)Cn2nc([N+](=O)[O-])cc2C)cc1,inactive: 2.61%,
NC(=O)N(CCC(=O)O)c1ccccc1,,"inconclusive: 3.16 µM [inhibitor, full curve]"

SMILES,"activity change, negative = inhibition",Potency
Cc1ccc(-c2cc(-c3ccco3)c3c(N)c(C(=O)NN)oc3n2)cc1,,"inconclusive: 7.08 µM [inhibitor, partial curve, poor fit]"
COC(=O)[C@@H](NC(=O)NC1CCCCC1C)C(C)C (stereo not given in full),inactive: 4.32%,
Nc1nc(-c2ccccc2)c(N=Nc2cccnc2)s1,,"inconclusive: 1.26 µM [activator, full curve]"
CCCSc1nnc(NC(=O)Nc2ccc(C)cc2)s1,inactive: -0.563%,
O=[N+]([O-])c1c(NCc2ccco2)ccc2nonc12,,"inconclusive: 501 µM [inhibitor, partial curve, poor fit]"
Cc1cc(O)c(C=O)c2c1C(=O)Oc1c(COC(=O)/C=C/C(=O)O)c(O)c(C(=O)O)c(C)c1O2,,active: 28.2 µM
CCc1ccccc1NC(=S)N(CCN(C)C)C(C)c1ccccn1 (stereo not given),,"inconclusive: 0.4 µM [inhibitor, full curve]"
O=C(O)c1nccnc1C(=O)Nc1ccc(S(=O)(=O)N2CCOCC2)cc1,,"inconclusive: 44.7 µM [inhibitor, single point]"
O=S(=O)(c1ccc2nc(-c3ccco3)c(-c3ccco3)nc2c1)N1CCOCC1,,"inconclusive: 7.08 µM [activator, partial curve]"
c1ccc(-c2ccc(-c3ccccn3)nn2)nc1,,"inconclusive: 31.6 µM [inhibitor, single point]"
Cc1c2c(c(O)c3c(O)cccc13)C(=O)O[C@H]2C1C(N(C)C)C(O)=C(C(N)=O)C(=O)[C@H]1O (stereo not given in full),,active: 2.24 µM
S=C(NCc1ccco1)N1CCOCC1,,"inconclusive: 0.113 µM [activator, full curve]"
COc1ccc(-c2csc(N)n2)cc1,,"inconclusive: 0.0012 µM [inhibitor, full curve, poor fit]"
CC(=O)Oc1cc2cccc(OC(C)=O)c(=O)c2c(OC(C)=O)c1OC(C)=O,,"inconclusive: 1.41 µM [inhibitor, full curve]"
O=C(O)c1cccnc1C(=O)O,,"inconclusive: 35.5 µM [inhibitor, partial curve]"
CC/C(=C(\c1ccccc1)c1ccc(OCCN(C)C)cc1)c1ccccc1,,"inconclusive: 38.6 µM [inhibitor, partial curve]"
O=[N+]([O-])c1cc2c(cc1/C=N/n1c(-c3ccccn3)n[nH]c1=S)OCO2,,"inconclusive: 12.6 µM [activator, full curve]"
CCC12CCCN3CCc4c(n(c5ccccc45)C(O)(C(=O)OC)C1)C32 (stereo not given),inactive: 36%,
O=C(NCCc1ccccc1)c1cccc(Br)n1,,inconclusive: 0.0004 µM [activator]
COc1ccc(C(=O)Nc2cccnc2Sc2ccc(Cl)cc2)cc1,inactive: -4.01%,
COc1ccc(C2=NOC(CNC(=S)N3CCOCC3)C2)cc1 (stereo not given),inactive: 8.59%,
O=C(Nc1ccc(Cl)cc1)NC1CCCCNC1=O (stereo not given),inactive: 2.89%,
O=C1C(CCC(O)c2ccc(F)cc2)C(c2ccc(O)cc2)N1c1ccc(F)cc1 (stereo not given),,"inconclusive: 25 µM [inhibitor, partial curve, poor fit]"
O=c1c(-c2cc(O)c(O)c(O)c2)coc2cc(O)c(O)c(O)c12,,"inconclusive: 1.78 µM [inhibitor, full curve]"
Nc1c(C(=O)N/N=C/c2cccnc2)oc2nc(-c3ccco3)cc(-c3ccco3)c12,,"inconclusive: 8.91 µM [inhibitor, partial curve, poor fit]"
